Our source for the cell count values is the supplement of paper PMC4604168 (melanoma cell lines).

The other results are listed elsewhere or left out. Repeats are few or missing, and single values can be far off.
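Note: cells treated in 1,536-well plates, then fixed and DAPI-stained, with nuclei counted from automated high-throughput microscope images.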

This experiment relates to A101D. The experiment in a line: cell count relative to DMSO control; melanoma cells; higher = more viable cells. As to conditions: library dose: standard library concentration; 72 h.
Compound `CC[C@]1(O)C[C@H]2CN(CCc3c([nH]c4ccccc34)[C@@](C(=O)OC)(c3cc4c(cc3OC)N(C=O)[C@H]3[C@@](O)(C(=O)OC)[C@H](OC(C)=O)[C@]5(CC)C=CCN6CC[C@]43[C@@H]65)C2)C1` [vincristine] + NC(=O)Nc1cc(-c2cccc(F)c2)sc1C(=O)N[C@H]1CCCNC1 [AZD7762] (first compound 0.0005 µM, partner dose 0.1 µM) had a cell count of 47%.
The figure for `CC[C@]1(O)C[C@H]2CN(CCc3c([nH]c4ccccc34)[C@@](C(=O)OC)(c3cc4c(cc3OC)N(C=O)[C@H]3[C@@](O)(C(=O)OC)[C@H](OC(C)=O)[C@]5(CC)C=CCN6CC[C@]43[C@@H]65)C2)C1` [vincristine] + CN(c1ncccc1CNc1nc(Nc2ccc3c(c2)CC(=O)N3)ncc1C(F)(F)F)S(C)(=O)=O [PF562271] (first compound 0.0005 µM, partner dose 0.4 µM) is 67.9%; for `N#CC[C@H](C1CCCC1)n1cc(-c2ncnc3[nH]ccc23)cn1` [ruxolitinib] + COCC[n+]1c2c(n(Cc3cnccn3)c1C)C(=O)c1ccccc1C2=O [YM155] (first compound 5 µM, partner dose 0.002 µM) it is 94.2%.
With `N#CC[C@H](C1CCCC1)n1cc(-c2ncnc3[nH]ccc23)cn1` [ruxolitinib] + COc1cc2c(Oc3ccc4[nH]c(C)cc4c3F)ncnc2cc1OCCCN1CCCC1 [cediranib] (first compound 5 µM, partner dose 2 µM), the cell count stood at 145%.
